The campaign covered roughly 260,000 compounds. About 960 (0.37%) were called active. This list was built around the results that the source calls inconclusive (neither active nor inactive); the mix of calls is not that of the screen.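 Rule for the calls: active = mean E-selectin-positive cell signal at least 10% of the positive control, reached in at least 60% of replicates, without over 20% cell loss; inconclusive = no rule given, readout overlaps actives, possibly toxicity-flagged; inactive = the rest, including those meeting only one limit.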
Molecular target: E-selectin (Homo sapiens) (UniProt P16581)
Sequence of UniProt P16581 (P16581 whole entry, looked up): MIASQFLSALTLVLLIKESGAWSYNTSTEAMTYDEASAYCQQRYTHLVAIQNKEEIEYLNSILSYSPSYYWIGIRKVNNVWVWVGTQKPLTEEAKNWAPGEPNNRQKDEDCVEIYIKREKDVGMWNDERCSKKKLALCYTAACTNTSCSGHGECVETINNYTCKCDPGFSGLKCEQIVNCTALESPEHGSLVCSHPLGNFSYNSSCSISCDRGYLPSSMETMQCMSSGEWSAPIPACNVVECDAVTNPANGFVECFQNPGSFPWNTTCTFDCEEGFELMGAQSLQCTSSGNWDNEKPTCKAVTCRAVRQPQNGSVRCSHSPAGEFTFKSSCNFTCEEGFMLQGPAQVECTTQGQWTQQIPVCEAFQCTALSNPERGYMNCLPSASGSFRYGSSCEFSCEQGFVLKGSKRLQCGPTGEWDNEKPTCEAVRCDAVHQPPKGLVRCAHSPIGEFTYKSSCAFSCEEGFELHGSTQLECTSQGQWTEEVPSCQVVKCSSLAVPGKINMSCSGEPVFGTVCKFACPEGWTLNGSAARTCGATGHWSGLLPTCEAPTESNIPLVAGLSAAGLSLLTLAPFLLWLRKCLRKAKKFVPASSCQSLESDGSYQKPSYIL
Experiment: inducers of endothelial E-selectin expression – imaging, HUVEC, immunofluorescence imaging, single point, primary screen (AID 686992);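 note: signal is the percent of cells scored E-selectin positive by PE staining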
Conditions: at 7.58 µM, active compounds read high, normalized: neutral wells 0, TNF-alpha wells 100
How it was run: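 Test system: HUVEC | Signal: Immunofluorescence imaging | Read-out: Percent E-selectin-positive cells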

| Compound | activation |
| --- | --- |
| Cc1onc(C(=O)NCCc2ccccc2)c1[N+](=O)[O-] | inconclusive: 46.3% |
| COCc1cn(CC[C@@H]2CC[C@@H](NC(=O)Nc3ccc4c(c3)OCO4)[C@@H](CO)O2)nn1 | inconclusive: 75.2% |
| Nc1c(Br)cc(Br)c2c1C(=O)c1c(cccc1S(=O)(=O)O)C2=O | active: 124% |
| COc1ccc(C)cc1NC(=O)C(NCC(O)c1ccccc1)c1ccccc1 (centres undefined) | active: 51.7% |
| CN1C(=O)C(C)(C)c2cc(S(=O)(=O)NCC3CCC(C(=O)NCc4ccccc4)CC3)ccc21 (centres undefined) | inconclusive: 80.1% |
| N#Cc1c(-c2ccccc2)c(C#N)c2nc3ccccc3n2c1N | inconclusive: 82.3% |
| O=C(COc1ccc(Cl)cc1)Nc1nnc(S(=O)(=O)N2CCCCCC2)s1 | active: 115% |
| COc1ccc(OC)c(NC(=O)c2csc(Cl)c2OC)c1 | active: 37.7% |
| COC(=O)c1ccncc1N | inconclusive: 49.4% |
| CN(c1ccccc1)S(=O)(=O)c1cccc(NC(=O)CSc2ncc(C(F)(F)F)cc2Cl)c1 | inconclusive: 32.1% |
| C=CCNC(=O)COC(=O)c1ccc(Cl)c(S(N)(=O)=O)c1 | inconclusive: 29.1% |
| CCOC(=O)C1CCCN(C(=O)/C(=C/c2ccco2)NC(=O)c2ccccc2)C1 (centres undefined) | inconclusive: 32.1% |
| CC(Oc1cccc(Cl)c1)C(=O)N1CCN(c2ncccn2)CC1 (centres undefined) | inconclusive: 26.7% |
| Cc1ccc(N2C(=O)c3ccccc3C2C(=O)c2cc(C)ccc2O)cc1 (centres undefined) | inconclusive: 59.6% |
| O=C(c1ccccc1)N1CC(=O)N2[C@H](CO)[C@H](c3ccc(C#CCC4CCCC4)cc3)[C@@H]2C1 | inactive: 0.569% |
| O=C(Cc1cccs1)Nc1cccc(-c2ccc3nncn3n2)c1 | inconclusive: 42.1% |
| Cc1noc(C)c1NC(=O)Nc1ccc2c(c1)CC(=O)N([C@@H](C)CO)C[C@@H](C)[C@H](CN(C)S(=O)(=O)c1ccccc1)O2 | inconclusive: 42% |
| C[C@@H]1CN([C@H](C)CO)C(=O)Cc2cc(NS(=O)(=O)c3cccs3)ccc2O[C@@H]1CN(C)Cc1ccc(C(=O)Nc2ccccc2N)cc1 | inconclusive: 103% |
| CC(C)NC[C@H]1[C@@H](c2ccc(C3=CCCCC3)cc2)[C@@H](CO)N1C(=O)NC(C)C | inactive: 0.179% |
| N#Cc1ccc(-c2nc3c(Cl)cc(C(F)(F)F)cn3c2Cc2ccsc2)cc1 | inconclusive: 55.3% |
| Cc1[nH]n(-c2ccccc2)c(=O)c1N=Nc1ccc(C#N)cc1 | inconclusive: 26.5% |
| C[C@H](CO)N1C[C@H](C)[C@H](CN(C)CC2CC2)Oc2c(NC(=O)C3CC3)cccc2C1=O | active: 64.1% |
| Cc1ccccc1NC(=O)c1cccnc1 | inconclusive: 62.2% |
| COCCNC(=O)C[C@H]1C[C@H]2c3cc(NC(=O)CC4CC4)ccc3O[C@H]2[C@@H](CO)O1 | inactive: -0.241% |
| COC(=O)[C@H](c1ccccc1Cl)N1CCc2sccc2C1 | inconclusive: 82% |

| Compound | activation |
| --- | --- |
| Nn1c(SCc2cccc(Br)c2)nnc1-c1cccnc1 | inconclusive: 58.4% |
| CC(C)NC(=O)N1CC[C@H]2[C@@H]1c1cc(C#Cc3cccnc3)ccc1N(C)[C@H]2CO | inactive: 0.804% |
| COC(=O)C1=C(C)NC(=O)/C1=C\N(C)C | active: 38.7% |
| Cc1ccc(S(=O)(=O)Nc2ccc3c(c2)C(=O)N([C@H](C)CO)C[C@H](C)[C@H](CN(C)C(=O)Nc2cccc4ccccc24)OCCCC[C@@H](C)O3)cc1 | inconclusive: 131% |
| COc1ccc(S(=O)(=O)Nc2ccc3c(c2)CC(=O)N([C@@H](C)CO)C[C@@H](C)[C@@H](CN(C)C(=O)Nc2cccc4ccccc24)O3)cc1 | inconclusive: 1.42% |
| CC(=O)N1c2ccccc2N=C(c2ccc(C(F)(F)F)cc2)C1C(=O)NC1CCCC1 (centres undefined) | inconclusive: 35.1% |
| C[C@@H]1CN([C@H](C)CO)C(=O)Cc2cc(NC(=O)C3CC3)ccc2O[C@@H]1CN(C)Cc1ccc2c(c1)OCO2 | active: 28.9% |
| Cc1c(Cl)cccc1NC(=S)N1CCN(Cc2ccc3c(c2)OCO3)CC1 | inconclusive: 44.4% |
| O=C(O)CSc1nnc(-c2ccccc2Br)n1-c1cccc(C(F)(F)F)c1 | inconclusive: 49.2% |
| O=C1c2ccccc2C(=O)C1c1ccccc1 | inconclusive: 57.4% |
| C=CCNC(=O)c1cnc2n(c1=O)CCS2 | inconclusive: 88.7% |
| COc1ccc(N(CC(=O)NCCc2ccccc2)C(=O)CCC(=O)Nc2ccccn2)cc1 | inconclusive: 26.7% |
| CC(C)CCNC(=O)c1cn(C)c2ccc(S(=O)(=O)N3CCCC3)cc2c1=O | active: 36.8% |
| COc1ccccc1OCC(=O)Nc1ccc(S(=O)(=O)N2CCN(C)CC2)cc1 | active: 333% |
| CC(C)CC#Cc1cnc2c(c1)C(=O)N([C@@H](C)CO)C[C@@H](C)[C@H](CN(C)C(=O)CCN1CCCCC1)O2 | inactive: -0.0165% |
| COc1ccc(CCNC(=O)CN(c2cccc([N+](=O)[O-])c2)S(C)(=O)=O)cc1 | inactive: 2.82% |
| CCC(=O)Nc1ccc2c(c1)C(=O)N(C)C[C@H](OC)[C@H](C)CN(C(=O)c1ccc(F)cc1)[C@@H](C)CO2 | inconclusive: 31.9% |
| NC(=O)C1CCN(c2nc(-c3ccccc3Br)cs2)CC1 | inactive: 0.518% |
| O=c1[nH]c2ccccc2nc1-c1c[nH]c2ccccc12 | inactive: 0.137% |
| C[C@H](CO)N1C[C@H](C)[C@@H](CN(C)C(=O)NC2CCCCC2)Oc2ccc(NS(C)(=O)=O)cc2CC1=O | inconclusive: 47.3% |
| CCCC#Cc1cnc2c(c1)C(=O)N([C@@H](C)CO)C[C@H](C)[C@H](CN(C)S(=O)(=O)c1cccc(OC)c1)O2 | inactive: -0.18% |
| COc1ccc(-n2cc(-c3ccccc3)c3c(NCCOCCO)ncnc32)cc1 | inconclusive: 26.4% |
| Cc1[nH][nH]c(=O)c1C(c1ccc(O)c(Br)c1)c1c(C)[nH][nH]c1=O | inconclusive: 27.6% |
| C[C@@H]1CN([C@@H](C)CO)C(=O)c2cccc(NC(=O)Nc3ccccc3)c2O[C@@H]1CN(C)C | inactive: -0.085% |
